# From the supplement of paper PMC8728848
# The list shows a part of the results.
# Tests used:
# Assay in all cases: glycan array binding signal (z-score within array); higher = stronger binding
# Settings in all cases: glycan notation: IUPAC condensed, linker removed
# [1] = biological target: Fuc(a1-2)Gal(b1-4)GlcNAc(b1-3)Gal(b1-4)GlcNAc(b1-2)Man(a1-3)[Fuc(a1-2)Gal(b1-4)GlcNAc(b1-3)Gal(b1-4)GlcNAc(b1-2)Man(a1-6)]Man(b1-4)GlcNAc(b1-4)GlcNAc
# Procedure, shortened: (§1)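 Arrays were curated from the Consortium for Functional Glycomics database, 3228 in total, and kept only where the protein sequence was available. Binding is expressed as a within-array Z-score. This score was averaged across arrays of the same protein sequence at different concentrations or buffers and across linkers, and negative values can be read as non-binding.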
# [2] = biological target: Fuc(a1-2)Gal(b1-4)GlcNAc(b1-3)Gal(b1-4)GlcNAc(b1-3)Gal(b1-4)GlcNAc
# Procedure, shortened: as §1
# [3] = biological target: Fuc(a1-2)Gal(b1-4)GlcNAc(b1-3)GalNAc
# Procedure, shortened: as §1
# [4] = biological target: Fuc(a1-2)Gal(b1-4)GlcNAc(b1-3)[Fuc(a1-2)Gal(b1-4)GlcNAc(b1-6)]GalNAc
# Procedure, shortened: as §1
# [5] = biological target: Fuc(a1-2)Gal(b1-4)GlcNAc(b1-3)[Fuc(a1-3)[Gal(b1-4)]GlcNAc(b1-6)]Gal(b1-4)Glc
# Procedure, shortened: as §1
# [6] = biological target: Fuc(a1-2)Gal(b1-4)GlcNAc(b1-6)GalNAc
# Procedure, shortened: as §1
# [7] = biological target: Fuc(a1-2)Gal(b1-4)GlcNAc6S
# Procedure, shortened: as §1
# [8] = biological target: Fuc(a1-2)Gal(b1-4)[Fuc(a1-3)]GlcNAc
# Procedure, shortened: as §1
# [9] = biological target: Fuc(a1-2)Gal(b1-4)[Fuc(a1-3)]GlcNAc(b1-2)Man(a1-3)[Fuc(a1-2)Gal(b1-4)[Fuc(a1-3)]GlcNAc(b1-2)Man(a1-6)]Man(b1-4)GlcNAc(b1-4)[Fuc(a1-6)]GlcNAc
# Procedure, shortened: as §1
# [10] = biological target: Fuc(a1-2)Gal(b1-4)[Fuc(a1-3)]GlcNAc(b1-2)[Fuc(a1-2)Gal(b1-4)[Fuc(a1-3)]GlcNAc(b1-4)]Man(a1-3)[Fuc(a1-2)Gal(b1-4)[Fuc(a1-3)]GlcNAc(b1-2)Man(a1-6)]Man(b1-4)GlcNAc(b1-4)GlcNAc
# Procedure, shortened: as §1
# [11] = biological target: Fuc(a1-2)Gal(b1-4)[Fuc(a1-3)]GlcNAc(b1-3)Gal(b1-4)[Fuc(a1-3)]GlcNAc
# Procedure, shortened: as §1
# [12] = biological target: Fuc(a1-2)Gal(b1-4)[Fuc(a1-3)]GlcNAc(b1-3)Gal(b1-4)[Fuc(a1-3)]GlcNAc(b1-3)Gal(b1-4)[Fuc(a1-3)]GlcNAc
# Procedure, shortened: as §1
# [13] = biological target: Fuc(a1-2)Gal(b1-4)[Fuc(a1-3)]GlcNAc(b1-3)GalNAc
# Procedure, shortened: as §1
# [14] = biological target: Fuc(a1-2)Gal(b1-4)[Fuc(a1-3)]GlcNAc(b1-3)[Neu5Ac(a2-6)Gal(b1-4)GlcNAc(b1-6)]Gal(b1-4)Glc
# Procedure, shortened: as §1
# [15] = biological target: Fuc(a1-2)Gal3S(b1-4)GlcNAc
# Procedure, shortened: as §1
# [16] = biological target: Fuc(a1-2)Gal6S(b1-3)GlcNAc
# Procedure, shortened: as §1
# [17] = biological target: Fuc(a1-2)Gal6S(b1-3)GlcNAc6S
# Procedure, shortened: as §1
# Fuc(a1-2)Gal6S(b1-4)Glc = biological target: Fuc(a1-2)Gal6S(b1-4)Glc
# Procedure, shortened: as §1
# [18] = biological target: Fuc(a1-2)Gal6S(b1-4)Glc6S
# Procedure, shortened: as §1
# Fuc(a1-2)[Gal(a1-3)]Gal = biological target: Fuc(a1-2)[Gal(a1-3)]Gal
# Procedure, shortened: as §1
# [19] = biological target: Fuc(a1-2)[Gal(a1-3)]Gal(b1-3)GalNAc
# Procedure, shortened: as §1
# [20] = biological target: Fuc(a1-2)[Gal(a1-3)]Gal(b1-3)GalNAc(b1-3)Gal(a1-4)Gal(b1-4)Glc
# Procedure, shortened: as §1
# [21] = biological target: Fuc(a1-2)[Gal(a1-3)]Gal(b1-3)GlcNAc
# Procedure, shortened: as §1
# [22] = biological target: Fuc(a1-2)[Gal(a1-3)]Gal(b1-3)GlcNAc(b1-2)Man(a1-3)[Fuc(a1-2)[Gal(a1-3)]Gal(b1-3)GlcNAc(b1-2)Man(a1-6)]Man(b1-4)GlcNAc(b1-4)GlcNAc
# Procedure, shortened: as §1
# [23] = biological target: Fuc(a1-2)[Gal(a1-3)]Gal(b1-3)GlcNAc(b1-2)Man(a1-3)[Fuc(a1-2)[Gal(a1-3)]Gal(b1-3)GlcNAc(b1-2)Man(a1-6)]Man(b1-4)GlcNAc(b1-4)[Fuc(a1-6)]GlcNAc
# Procedure, shortened: as §1
# [24] = biological target: Fuc(a1-2)[Gal(a1-3)]Gal(b1-3)GlcNAc(b1-3)GalNAc
# Procedure, shortened: as §1
# [25] = biological target: Fuc(a1-2)[Gal(a1-3)]Gal(b1-3)GlcNAc(b1-6)GalNAc
# Procedure, shortened: as §1
# [26] = biological target: Fuc(a1-2)[Gal(a1-3)]Gal(b1-4)Glc
# Procedure, shortened: as §1
# [27] = biological target: Fuc(a1-2)[Gal(a1-3)]Gal(b1-4)GlcNAc
# Procedure, shortened: as §1
# [28] = biological target: Fuc(a1-2)[Gal(a1-3)]Gal(b1-4)GlcNAc(b1-2)Man
# Procedure, shortened: as §1
binder,measurement,setting,value
"FliC (Pseudomonas aeruginosa), P72151 (protein) MALTVNTNIASLNTQRNLNASSNDLNTSLQRLTTGYRINSAKDDAAGLQISNRLSNQISGLNVATRNANDGISLAQTAEGALQQSTNILQRIRDLALQSANGSNSDADRAALQKEVAAQQAELTRISDTTTFGGRKLLDGSFGTTSFQVGSNAYETIDISLQNASASAIGSYQVGSNGAGTVASVAGTATASGIASGTVNLVGGGQVKNIAIAAGDSAKAIAEKMDGAIPNLSARARTVFTADVSGVTGGSLNFDVTVGSNTVSLAGVTSTQDLADQLNSNSSKLGITASINDKGVLTITSATGENVKFGAQTGTATAGQVAVKVQGSDGKFEAAAKNVVAAGTAATTTIVTGYVQLNSPTAYSVSGTGTQASQVFGNASAAQKSSVASVDISTADGAQNAIAVVDNALAAIDAQRADLGAVQNRFKNTIDNLTNISENATNARSRIKDTDFAAETAALSKNQVLQQAGTAILAQANQLPQAVLSLLR",glycan array binding signal (z-score),[1],0.028
same,glycan array binding signal (z-score),[2],-0.151
same,glycan array binding signal (z-score),[3],-0.16
same,glycan array binding signal (z-score),[4],-0.164
same,glycan array binding signal (z-score),[5],-0.132
same,glycan array binding signal (z-score),[6],-0.149
same,glycan array binding signal (z-score),[7],-0.022
same,glycan array binding signal (z-score),[8],-0.156
same,glycan array binding signal (z-score),[9],0.108
same,glycan array binding signal (z-score),[10],-0.145
same,glycan array binding signal (z-score),[11],-0.194
same,glycan array binding signal (z-score),[12],-0.169
same,glycan array binding signal (z-score),[13],-0.154
same,glycan array binding signal (z-score),[14],-0.134
same,glycan array binding signal (z-score),[15],-0.169
same,glycan array binding signal (z-score),[16],-0.163
same,glycan array binding signal (z-score),[17],-0.159
same,glycan array binding signal (z-score),Fuc(a1-2)Gal6S(b1-4)Glc,-0.178
same,glycan array binding signal (z-score),[18],-0.135
same,glycan array binding signal (z-score),Fuc(a1-2)[Gal(a1-3)]Gal,-0.231
same,glycan array binding signal (z-score),[19],-0.178
same,glycan array binding signal (z-score),[20],-0.185
same,glycan array binding signal (z-score),[21],-0.118
same,glycan array binding signal (z-score),[22],-0.159
same,glycan array binding signal (z-score),[23],-0.129
same,glycan array binding signal (z-score),[24],-0.211
same,glycan array binding signal (z-score),[25],0.094
same,glycan array binding signal (z-score),[26],-0.182
same,glycan array binding signal (z-score),[27],-0.168
same,glycan array binding signal (z-score),[28],-0.226
